# Measured values: a collection of fitness landscapes (doi:10.1016/j.celrep.2020.107928)
# Whole data set: some 81,000 sequences, median “one-hybrid fitness for binding NBS DNA” near -0.1, cut for the highest 2% near 0.36. Some of the results follow.
# B1: Caulobacter ParB omega fusion; a variant is named by its letters at X, in order, B8GW30 (parent)
# chain: MESVVVGEPGMSEGRRGLGRGLSALLGEVDAAPAQAPGEQLGGSREAPIEILQRNPDQPRRTFREEDLEDLSNSIREKGVLQPILVRPSPDTAGEYQIVAGERAWRAAQRAGLKTVPIMVRELDDLAVLEIGIIENVQRADLNVLEEALSYKVLMEKFERTQENIAQTIGKSXSHVANXMRLLXLPDEVQSYLVSGELTAXHARAIAAAADPVALAKQIIEGGLSVRETEALARKAPNLSAGKSKGGRPPRVKDTDTQALESDLSSVLGLDVSIDHRGSTGTLTITYATLEQLDDLCNRLTRGI
# Variants of: B1
# Experiment: one-hybrid fitness for binding NBS DNA (the Noc-binding site; scaled: cognate 1, non-cognate 0); higher = stronger binding
# Conditions: with NBS DNA site
# Method in brief: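 Values were rescaled so that cognate is 1 and non-cognate is 0. Each is a fitness, the log change in a variant's read ratio to wild type from Illumina reads of plasmids before and after selection, with three replicate libraries pooled and variants under 10 reads dropped. Selection of the Caulobacter ParB libraries, four specificity codons randomised, used E. coli USO with a HIS3 reporter, site 19 bp from the promoter, on M9-minus-histidine with 0.1 mM IPTG and 5 mM 3-AT for 48 hours at 37°C.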
row,Variant,one-hybrid fitness for binding NBS DNA
1,TVAN,≤ 0.2
2,DLTY,≤ 0.2
3,QGFR,≤ 0.2
4,ESDV,≤ 0.2
5,FVPV,≤ 0.2
6,ARMK,≤ 0.2
7,FSHL,≤ 0.2
8,SVDG,≤ 0.2
9,VDGC,≤ 0.2
10,TGTY,≤ 0.2
11,NPRM,≤ 0.2
12,TSDC,≤ 0.2
13,SPSR,≤ 0.2
14,NAMN,≤ 0.2
15,RFTH,≤ 0.2
16,SKTD,≤ 0.2
17,DRRG,≤ 0.2
18,ITSI,≤ 0.2
19,TKNC,≤ 0.2
20,EMLY,≤ 0.2
21,WVLS,≤ 0.2

row,Variant,one-hybrid fitness for binding NBS DNA
1,HTAF,≤ 0.2
2,LLLH,≤ 0.2
3,QTTL,≤ 0.2
4,MCNF,≤ 0.2
5,ECAT,≤ 0.2
6,RAHS,0.482
7,RDNI,≤ 0.2
8,LLDS,≤ 0.2
9,HFTC,≤ 0.2
10,QVLH,≤ 0.2
11,DWNG,≤ 0.2
12,MPAL,≤ 0.2
13,RVPR,≤ 0.2
14,RFYH,≤ 0.2
15,YRDC,≤ 0.2
16,PIPP,≤ 0.2
17,ATPE,≤ 0.2
18,PPAC,≤ 0.2
19,RHDL,≤ 0.2
20,CQWS,≤ 0.2
21,RLFK,≤ 0.2

row,Variant,one-hybrid fitness for binding NBS DNA
1,QLES,≤ 0.2
2,MPEL,≤ 0.2
3,ASRL,≤ 0.2
4,GQNV,≤ 0.2
5,KQQS,≤ 0.2
6,DHCR,≤ 0.2
7,FLNT,≤ 0.2
8,QLQV,≤ 0.2
9,QICT,0.266
10,QDEP,≤ 0.2
11,NQYC,≤ 0.2
12,TPNF,≤ 0.2
13,PQRC,≤ 0.2
14,CSRR,≤ 0.2
15,PWWF,≤ 0.2
16,HPQL,≤ 0.2
17,CYWT,≤ 0.2
18,KTAN,≤ 0.2
19,RKIT,0.361
20,RTAI,≤ 0.2
21,QRRE,0.346

row,Variant,one-hybrid fitness for binding NBS DNA
1,FPPA,≤ 0.2
2,QFKY,≤ 0.2
3,RNKK,≤ 0.2
4,RFPF,≤ 0.2
5,KSWS,≤ 0.2
6,WYNS,≤ 0.2
7,DGSR,≤ 0.2
8,VDPG,≤ 0.2
9,DMVV,≤ 0.2
10,YPLG,≤ 0.2
11,PHNS,≤ 0.2
12,HVFR,≤ 0.2
13,PKYT,≤ 0.2
14,VSQS,≤ 0.2
15,HFEY,≤ 0.2
16,ARVQ,≤ 0.2
17,HCQG,≤ 0.2
18,IPGV,≤ 0.2
19,IPNR,≤ 0.2
20,EKRL,≤ 0.2
21,NEKS,≤ 0.2
